Consider two molecules from paper PMC6949271.

Protein sequences, listed by entry. Tags and fused reporters are not part of them. Lines headed by an entry give the natural chain unless they say otherwise; changes in a name come on top.
UniProt Q92547: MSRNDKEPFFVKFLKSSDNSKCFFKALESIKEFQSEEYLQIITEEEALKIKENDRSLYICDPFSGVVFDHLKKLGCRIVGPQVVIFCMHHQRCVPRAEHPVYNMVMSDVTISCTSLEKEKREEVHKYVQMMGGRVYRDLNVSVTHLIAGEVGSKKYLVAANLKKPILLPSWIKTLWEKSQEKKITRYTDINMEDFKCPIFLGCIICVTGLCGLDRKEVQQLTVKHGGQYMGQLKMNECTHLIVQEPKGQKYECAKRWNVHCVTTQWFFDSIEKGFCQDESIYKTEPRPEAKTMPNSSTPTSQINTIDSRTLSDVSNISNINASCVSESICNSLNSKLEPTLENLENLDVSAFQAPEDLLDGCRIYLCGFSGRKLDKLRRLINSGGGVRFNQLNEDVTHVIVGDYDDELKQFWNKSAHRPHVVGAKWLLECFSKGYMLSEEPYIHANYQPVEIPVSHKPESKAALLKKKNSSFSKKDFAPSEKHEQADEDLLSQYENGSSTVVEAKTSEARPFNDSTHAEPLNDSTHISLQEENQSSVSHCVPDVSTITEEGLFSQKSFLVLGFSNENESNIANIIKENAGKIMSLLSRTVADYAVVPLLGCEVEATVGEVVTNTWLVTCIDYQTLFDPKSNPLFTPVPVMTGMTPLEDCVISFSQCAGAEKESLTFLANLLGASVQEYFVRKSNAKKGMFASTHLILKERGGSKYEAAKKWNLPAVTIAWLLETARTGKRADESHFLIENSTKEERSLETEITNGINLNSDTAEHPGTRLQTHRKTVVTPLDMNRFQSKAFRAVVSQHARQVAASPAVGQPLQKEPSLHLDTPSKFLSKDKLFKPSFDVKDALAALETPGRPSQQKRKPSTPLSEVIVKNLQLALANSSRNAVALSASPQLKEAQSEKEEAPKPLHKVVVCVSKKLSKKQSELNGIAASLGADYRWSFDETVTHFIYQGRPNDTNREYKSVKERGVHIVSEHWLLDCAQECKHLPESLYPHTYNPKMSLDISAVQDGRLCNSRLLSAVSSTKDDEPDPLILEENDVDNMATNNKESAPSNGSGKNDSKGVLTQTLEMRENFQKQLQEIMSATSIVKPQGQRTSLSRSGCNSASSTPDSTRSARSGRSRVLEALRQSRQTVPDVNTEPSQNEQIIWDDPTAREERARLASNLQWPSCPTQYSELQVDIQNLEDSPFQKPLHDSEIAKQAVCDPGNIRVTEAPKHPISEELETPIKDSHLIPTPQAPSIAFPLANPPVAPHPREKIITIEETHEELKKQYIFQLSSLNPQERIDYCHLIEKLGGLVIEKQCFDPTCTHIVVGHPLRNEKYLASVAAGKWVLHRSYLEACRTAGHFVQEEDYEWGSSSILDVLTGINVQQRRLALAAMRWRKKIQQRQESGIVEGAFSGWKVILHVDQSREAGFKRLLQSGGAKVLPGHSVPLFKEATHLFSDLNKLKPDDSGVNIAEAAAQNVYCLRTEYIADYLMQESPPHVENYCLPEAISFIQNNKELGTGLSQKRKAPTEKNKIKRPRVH

Results are given in words; binding and its absence hold for the method and conditions named. In cells and extracts the contact can be indirect. Some entries that bind do so weakly or less than the wild type.

Test in all cases: co-IP; GFP-tagged TOPBP1 constructs captured on GFP-Trap magnetic agarose from Benzonase-treated lysates of transfected 293FT cells (200 mM NaCl, 2 mM EDTA, 4 °C); endogenous partners detected by blot
Test [1] addresses GFP-tagged full-length TOPBP1 K704A (BRCT5 mutant) (UniProt Q92547).
The target of test [2] is GFP-tagged full-length TOPBP1 K154A/K155A (BRCT1 mutant) (UniProt Q92547).
For test [3], the target named is GFP-tagged full-length TOPBP1, wild type (UniProt Q92547).

B1: RAD9, endogenous (293FT) (protein, UniProt Q99638 1-391)
chain: MKCLVTGGNVKVLGKAVHSLSRIGDELYLEPLEDGLSLRTVNSSRSAYACFLFAPLFFQQYQAATPGQDLLRCKILMKSFLSVFRSLAMLEKTVEKCCISLNGRSSRLVVQLHCKFGVRKTHNLSFQDCESLQAVFDPASCPHMLRAPARVLGEAVLPFSPALAEVTLGIGRGRRVILRSYHEEEADSTAKAMVTEMCLGEEDFQQLQAQEGVAITFCLKEFRGLLSFAESANLNLSIHFDAPGRPAIFTIKDSLLDGHFVLATLSDTDSHSQDLGSPERHQPVPQLQAHSTPHPDDFANDDIDSYMIAMETTIGNEGSRVLPSISLSPGPQPPKSPGPHSEEEDEAEPSTVPGTPPPKKFRSLFFGSILAPVRSPQGPSPVLAEDSEGEG
Consider B1, for which the figures for the binding result in test [1], in test [2] and in test [3] were “binds”, “no binding” and “binds”, respectively.

B2: Treacle, endogenous (293FT) (protein, UniProt Q13428 1-1488)
chain: MAEARKRRELLPLIYHHLLRAGYVRAAREVKEQSGQKCFLAQPVTLLDIYTHWQQTSELGRKRKAEEDAALQAKKTRVSDPISTSESSEEEEEAEAETAKATPRLASTNSSVLGADLPSSMKEKAKAETEKAGKTGNSMPHPATGKTVANLLSGKSPRKSAEPSANTTLVSETEEEGSVPAFGAAAKPGMVSAGQADSSSEDTSSSSDETDVEGKPSVKPAQVKASSVSTKESPARKAAPAPGKVGDVTPQVKGGALPPAKRAKKPEEESESSEEGSESEEEAPAGTRSQVKASEKILQVRAASAPAKGTPGKGATPAPPGKAGAVASQTKAGKPEEDSESSSEESSDSEEETPAAKALLQAKASGKTSQVGAASAPAKESPRKGAAPAPPGKTGPAVAKAQAGKREEDSQSSSEESDSEEEAPAQAKPSGKAPQVRAASAPAKESPRKGAAPAPPRKTGPAAAQVQVGKQEEDSRSSSEESDSDREALAAMNAAQVKPLGKSPQVKPASTMGMGPLGKGAGPVPPGKVGPATPSAQVGKWEEDSESSSEESSDSSDGEVPTAVAPAQEKSLGNILQAKPTSSPAKGPPQKAGPVAVQVKAEKPMDNSESSEESSDSADSEEAPAAMTAAQAKPALKIPQTKACPKKTNTTASAKVAPVRVGTQAPRKAGTATSPAGSSPAVAGGTQRPAEDSSSSEESDSEEEKTGLAVTVGQAKSVGKGLQVKAASVPVKGSLGQGTAPVLPGKTGPTVTQVKAEKQEDSESSEEESDSEEAAASPAQVKTSVKKTQAKANPAAARAPSAKGTISAPGKVVTAAAQAKQRSPSKVKPPVRNPQNSTVLARGPASVPSVGKAVATAAQAQTGPEEDSGSSEEESDSEEEAETLAQVKPSGKTHQIRAALAPAKESPRKGAAPTPPGKTGPSAAQAGKQDDSGSSSEESDSDGEAPAAVTSAQVIKPPLIFVDPNRSPAGPAATPAQAQAASTPRKARASESTARSSSSESEDEDVIPATQCLTPGIRTNVVTMPTAHPRIAPKASMAGASSSKESSRISDGKKQEGPATQVSKKNPASLPLTQAALKVLAQKASEAQPPVARTQPSSGVDSAVGTLPATSPQSTSVQAKGTNKLRKPKLPEVQQATKAPESSDDSEDSSDSSSGSEEDGEGPQGAKSAHTLGPTPSRTETLVEETAAESSEDDVVAPSQSLLSGYMTPGLTPANSQASKATPKLDSSPSVSSTLAAKDDPDGKQEAKPQQAAGMLSPKTGGKEAASGTTPQKSRKPKKGAGNPQASTLALQSNITQCLLGQPWPLNEAQVQASVVKVLTELLEQERKKVVDTTKESSRKGWESRKRKLSGDQPAARTPRSKKKKKLGAGEGGEASVSPEKTSTTSKGKAKRDKASGDVKEKKGKGSLGSQGAKDEPEEELQKGMGTVEGGDQSNPKSKKEKKKSDKRKKDKEKKEKKKKAKKASTKDSESPSQKKKKKKKKTAEQTV
As to B2, the binding entry is recorded as “no binding” in test [1], “no binding” in test [2] and “binds” in test [3].
